Assay results from PubChem BioAssay AID761 (NMMLSC, 2007).
Screen size: about 190,000 compounds; about 400 (0.21%) were called active. Inconclusive means that the source gave no clear call. Such entries were picked first, then a sample of the others.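 The calls were made as follows: active = percent activity GTP binding at least 20 points away from the 100% baseline, either down as inhibitor or up as activator; inconclusive = compound flagged as likely green fluorescent from well-wide comparison; inactive = the rest.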

The molecules below were run against Cell division control protein 42 homolog (Homo sapiens) (UniProt P60953) (assay: wildtype Cdc42 fluorescent GTP binding changes, either direction – biochemical, multiplex bead flow cytometry, Bodipy-GTP, primary screen (AID 761;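 also: median bead fluorescence of bound Bodipy-FL-GTP at 100 nM; 0% = excess unlabeled GTP control and 100% = no compound control; below 100% means less GTP binding so inhibitor and above means activator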)). Details: GST-Cdc42 beads, at 10 µM, actives lie on both sides.
Chain of UniProt P60953 (P60953 whole entry, looked up): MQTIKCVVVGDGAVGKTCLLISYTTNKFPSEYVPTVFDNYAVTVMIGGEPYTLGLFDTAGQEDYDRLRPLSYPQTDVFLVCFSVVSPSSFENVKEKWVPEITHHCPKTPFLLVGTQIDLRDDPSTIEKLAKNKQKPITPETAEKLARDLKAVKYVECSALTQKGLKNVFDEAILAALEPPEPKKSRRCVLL

Row | Structure (SMILES) | percent activity (GTP binding)
1 | Nn1c(SCC(=O)Nc2ccc3c(c2)OCO3)nnc1-c1ccncc1 | inconclusive: 88%
2 | COc1cccc(CNC(=O)CN2CCC(c3nc4ccc(C)cc4[nH]3)CC2)c1 | inactive: 95%
3 | COc1cccc2cc(/C(C)=N/NC(=O)c3ccco3)oc12 | inconclusive: 92%
4 | COc1ccc(C)cc1NC(=O)c1ccccc1NS(=O)(=O)c1cccc2cccnc12 | inactive: 104%
5 | COCCCNC(=O)CN(c1cc(Cl)ccc1OC)S(C)(=O)=O | inactive: 92%
6 | O=C(O)c1ccccc1OCCOc1ccccc1 | active: 138% [activator]
7 | CC(C)C1NC(=S)N(Cc2ccccc2)C1=O (stereo not drawn) | inactive: 99%
8 | O=C(CN1CCN(c2ccc(O)cc2)CC1)Nc1cc(S(=O)(=O)N2CCCCC2)ccc1Cl | inconclusive: 84%
9 | Brc1ccc(CSc2ncn[nH]2)cc1 | inconclusive: 111%
10 | COc1cccc(OC)c1-c1nn2c(-c3cc(-c4ccccc4)n[nH]3)nnc2s1 | active: 179% [activator]
11 | CCOc1ccc(CCNC(=O)CCS(=O)(=O)c2ccc(OC)cc2)cc1OCC | inactive: 104%
12 | CCOc1ccc(/C=C/c2c([N+](=O)[O-])c(=O)n(C)c(=O)n2C)cc1 | inconclusive: 88%
13 | Cc1c(C(=O)Nc2cccc3cccnc23)oc2ccccc12 | inconclusive: 98%
14 | C=CCn1c(=O)c(C(=O)Nc2ccccc2S(N)(=O)=O)c(O)c2ccccc21 | inconclusive: 92%
15 | O=C(Nc1ccc2c(c1)CCC2)c1cccc(S(=O)(=O)N2CCN(c3ccc(F)cc3)CC2)c1 | inconclusive: 107%
16 | CSc1ccc(S(=O)(=O)Nc2ccc(N3CCOCC3)c(Cl)c2)cc1 | inactive: 105%
17 | COc1ccc(C2Nc3ccccc3C(=O)N2c2ccc(C)cc2)cc1Cn1nnc2ccccc21 (stereo not drawn) | inconclusive: 91%
18 | CC(C)CC(c1nnnn1Cc1ccc2c(c1)OCO2)N1CCC(C(N)=O)CC1 (stereo not drawn) | inactive: 96%
19 | O=C(NCC1CCCO1)C1CC(=O)N(C2CCCC2)C1 (stereo not drawn) | inconclusive: 106%
20 | COc1ccc(/C=C(\C#N)C(=O)OCC(=O)Nc2ccc(-c3nc4ccc(C)cc4s3)cc2)cc1 | inconclusive: 92%
21 | Nn1cnnc1SCC(=O)Nc1ccc2c(c1)OCO2 | inconclusive: 92%
22 | CCCCNc1nc(=S)[nH]c2cc(OC)c(OC)cc12 | inconclusive: 61%
23 | COc1cc(C)ccc1OCCOc1c(Cl)cc(Cl)cc1Cl | inconclusive: 95%
24 | Cc1cc(C(=O)N/N=C/c2ccc(O)c([N+](=O)[O-])c2)c(C)n1-c1ccc(F)cc1 | inconclusive: 92%

Row | Structure (SMILES) | percent activity (GTP binding)
25 | CCC(Sc1nc(N)c(NC(=O)c2ccc(OC)cc2)c(=O)[nH]1)C(=O)O (stereo not drawn) | inactive: 95%
26 | Cc1ccc2c(c1)N(CCC(=O)NC1CC1)C(=O)C(C)O2 (stereo not drawn) | inconclusive: 100%
27 | CCOC(=O)c1c(N)sc(C(=O)Nc2ccccc2)c1C | inconclusive: 93%
28 | NC(=S)Nc1nccc(-c2cccs2)n1 | inconclusive: 89%
29 | O=S(=O)(c1ccc(F)cc1)n1ccc2cccnc21 | inconclusive: 106%
30 | O=C(Cc1ccc(Cl)cc1)Nc1ccc2c(c1)C(=O)NC2=O | inactive: 92%
31 | Cc1ccc(-c2c[n+](CC(=O)Nc3cc(=O)n(C)c(=O)n3C)c3n2CCC3)cc1 | inactive: 102%
32 | Cc1ccc(CNC(=O)C2CCN(S(=O)(=O)N3CCCCC3)CC2)cc1 | inconclusive: 96%
33 | CC(=O)c1cc(-c2ccccc2)n(CC(=O)Nc2cccc(C)c2C)c1C | inconclusive: 101%
34 | O=C1CC(c2nc3ccccc3[nH]2)CN1c1ccccc1F (stereo not drawn) | inconclusive: 103%
35 | C/C(=N\NC(=O)c1ccco1)c1ccc(NC(=O)c2ccccc2)cc1 | inconclusive: 95%
36 | O=C(CN1CCN(CCOCCO)CC1)N1c2ccccc2Sc2ccc(Cl)cc21 | inactive: 112%
37 | CN(NC(=O)CN1C(=O)c2ccccc2C1=O)C1=NS(=O)(=O)c2ccccc21 | inactive: 96%
38 | COc1ccc2cc(CCNC(=O)C3CC3)c(=O)[nH]c2c1 | inconclusive: 96%
39 | Cc1ccc2c(CSc3nncn3C)cc(=O)oc2c1C | inconclusive: 91%
40 | CS(=O)(=O)N1CCN(c2ccccc2NC(=O)c2ccco2)CC1 | inconclusive: 94%
41 | O=C(CNS(=O)(=O)c1cccs1)NCc1ccccc1 | inactive: 99%
42 | Cc1cccc(N2C(=O)CC(N(O)c3ccccc3)C2=O)c1 (stereo not drawn) | inconclusive: 107%
43 | COc1cc(/C=N\NC(=O)c2sc(N)nc2C)cc(OC)c1OC | inconclusive: 77%
44 | COCCNC(=O)Nc1ccc2nc(-c3ccco3)c(-c3ccco3)nc2c1 | inconclusive: 87%
45 | O=C(Nc1ccccc1)C1=C(c2ccccc2)S(=O)(=O)CCS1(=O)=O | active: 77%
46 | CC(C)(C)OC(=O)N1CCC[C@H]1c1nnc(SCc2ccc(Cl)cc2Cl)o1 | inconclusive: 85%
47 | O=c1[nH]c2ccccc2n1CCC1CCCCC1 | inactive: 101%
48 | CCS(=O)(=O)NC(C)C(c1cccs1)N1CCN(c2ccc(OC)cc2)CC1 (stereo not drawn) | inconclusive: 94%

Row | Structure (SMILES) | percent activity (GTP binding)
49 | Cc1ccc(-c2csc3nc4c5ccccc5c(NCCCN(C)C)nn4c(=O)c23)cc1 | active: 72%
50 | CC(C)Nc1nc(Cl)nc(NNC(=O)C(C)Oc2ccccc2)n1 (stereo not drawn) | inactive: 103%
51 | CCOc1cccc(CNCc2cccnc2)c1OCc1ccccc1 | inconclusive: 96%
52 | COc1ccc(C(=O)Cc2ccc(OC)c(OC)c2)c(OC)c1 | inconclusive: 106%
53 | CC(C)CC(=O)Nc1c2c(nn1-c1ccc(F)cc1)CSC2 | inactive: 104%
54 | Cc1ccc(OCCNC(=O)c2cccc(Oc3ccc(C(F)(F)F)cc3[N+](=O)[O-])c2)cc1 | inconclusive: 88%
55 | C=CCc1cc(C=O)cc(OC)c1OCc1ccc(C(=O)O)cc1 | inconclusive: 94%
56 | CSc1ccc(C(=S)N2CCN(C)CC2)cc1 | inconclusive: 106%
57 | CC1=C(Cl)C2=NS(=O)(=O)CCN2C=C1Cl | inactive: 100%
58 | COc1cc(CC(=O)NCc2ccco2)cc(OC)c1OC | inconclusive: 101%
59 | COc1ccc(CSc2nnc(SCc3ccc([N+](=O)[O-])cc3)s2)cc1 | inconclusive: 105%
60 | CCOc1cccc(-c2nnc3sc(COc4ccc(C)cc4)nn23)c1 | inconclusive: 90%
61 | O=C1COc2ccc(C(=O)c3ccccc3C(=O)NCc3ccccc3)cc2N1 | inactive: 103%
62 | Cc1cc(C)cc(OCC(=O)Nc2ccc(S(=O)(=O)Nc3ccccn3)cc2)c1 | inconclusive: 93%
63 | Cc1ccc(S(=O)(=O)N(C)C)cc1NC(=O)Cn1c(CN2CCOCC2)nc2ccccc2c1=O | inactive: 95%
64 | CSc1nsc(SC)c1NC(=O)OC1CCCCC1 | active: 35%
65 | CCc1cc2cc(C)ccc2nc1SCC(=O)Nc1cc(C)on1 | inconclusive: 103%
66 | O=C(O)CCCC(=O)NCCCCc1ccccc1 | inconclusive: 92%
67 | Cc1ccc(/C=C2\SC(=S)N(Cc3ccccc3)C2=O)o1 | inactive: 88%
68 | O=C(N/N=C/c1c(O)n(-c2ccccc2Cl)c(=O)c2ccccc12)c1cccnc1 | inactive: 91%
69 | CCCc1cc(C(N)=O)c(NC(=O)C2CCCO2)s1 (stereo not drawn) | inconclusive: 102%
70 | Cc1ccccc1Cn1c(CN2CCN(C(=O)c3ccco3)CC2)nc2c1c(=O)n(C)c(=O)n2C | inconclusive: 96%
71 | Cc1cc(NC(=O)Nc2ccccc2F)ccc1Br | inactive: 97%
72 | CC(=O)N1CCC(=O)Nc2ccc([N+](=O)[O-])cc21 | inactive: 97%

Row | Structure (SMILES) | percent activity (GTP binding)
73 | COc1cccc(C(=O)COC(=O)c2n[nH]c(=O)c3ccccc23)c1 | inconclusive: 93%
74 | Cc1c(CN2CCc3c([nH]c4ccccc34)C2C2CCCCC2)cnn1C (stereo not drawn) | inactive: 98%
75 | Nc1nc(SCC(=O)N2CCN(S(=O)(=O)c3ccc(Cl)cc3)CC2)n[nH]1 | inactive: 100%
76 | Cc1sc2ncnc(NC(C)C(=O)O)c2c1C (stereo not drawn) | inconclusive: 96%
77 | O=C(Nn1c(O)c(C=C2N=c3ccccc3=N2)sc1=S)c1ccc(Cl)cc1 | inactive: 93%
78 | O=C(CSc1nnc(-c2cccnc2)o1)c1cc2ccccc2oc1=O | inconclusive: 103%
79 | COc1ccc(C2NC(c3ccc(OC)cc3OC)C(C)C(=O)C2C)c(OC)c1 (stereo not drawn) | inactive: 97%
80 | O=C(OCc1cccc2ccccc12)c1ccc2c(=O)[nH]c(CN3CCOCC3)nc2c1 | inconclusive: 96%
81 | COc1ccc(-c2oc3c(OC)c(OC)c(OC)c(O)c3c(=O)c2OC)cc1OC | inconclusive: 92%
82 | CC1CCC2(CC1)NC(=O)N(CC(=O)N1CCN(S(=O)(=O)c3ccccc3)CC1)C2=O (stereo not drawn) | inactive: 99%
83 | O=C(O)CCn1ccnc1-c1ccccc1 | inconclusive: 105%
84 | CC1c2nc3ccccc3n2C(CC(=O)NC2CC2)C(=O)N1Cc1ccccc1 (stereo not drawn) | inactive: 100%
85 | COc1ccc(S(=O)(=O)NC(C(=O)NCCc2ccccn2)C(C)C)cc1 (stereo not drawn) | inactive: 105%
86 | O=C(Nc1cccc(S(=O)(=O)N2CCCC2)c1)c1ccc2ccccc2n1 | inconclusive: 91%
87 | CCC(C)NC(=O)CSc1nc2n[nH]c(C)c2c(=N)n1-c1ccc(OC)cc1 (stereo not drawn) | inconclusive: 76%
88 | CCOC(=O)c1nn(-c2ccccc2)c(=O)c(C#N)c1C | inconclusive: 105%
89 | O=C(O)CCc1nnc(SCC(=O)Nc2ccc(Br)cc2)[nH]c1=O | inconclusive: 90%
90 | CCc1ccc(OCCOCC(O)CNC2CCCC2)cc1 (stereo not drawn) | inactive: 97%
91 | COc1ccc(N2CCN(Cc3ccc(Br)s3)CC2)cc1 | inconclusive: 101%
92 | N#Cc1c(N)oc(-c2ccco2)c1-c1ccco1 | inconclusive: 88%
93 | COc1ccc(-c2nnc(SCC(=O)N3CCCC(C)C3)o2)c(OC)c1 (stereo not drawn) | inconclusive: 104%
